Data reported in PubChem BioAssay AID485294 (National Center for Advancing Translational Sciences (NCATS), 2010).
Out of some 370,000 compounds screened, about 150 (0.041%) were called active. Inconclusive means that the source gave no clear call. Such entries were picked first, then a sample of the others. The call rests on the fitted dose curve; in most records, active means well fitted inhibition curve with a large enough effect; inconclusive means small, poorly fitted or top-dose-only effect; inactive means flat fitted curve, though single readings scatter. No potency is given beside an inconclusive call; the fits are too rough.

Molecular target: Beta-lactamase (Escherichia coli (strain K12)) (UniProt P00811)
Test: qHTS Inhibitors of AmpC Beta-Lactamase (assay with detergent); further: nearly all actives have a fitted effect of over 25% in size
Details: AmpC hydrolysis of nitrocefin, absorbance 480 nm, 0.01% Triton; series mostly up to 114 µM
Summary of the method: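 20 mM phosphate pH 7.0 + 0.01% (detergent screen) or 0.0001% Triton X-100; 5.3 nM AmpC reagent; cpd preinc 15 min RT; nitrocefin (800 uM stock) to start; A480 q20 s × 4 min; Activity was normalised to no-enzyme and no-compound control wells.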
Potency means the concentration at half of the fitted maximal effect; tags describe the fitted curve by direction and shape.

Chain of UniProt P00811 (P00811 whole entry, looked up): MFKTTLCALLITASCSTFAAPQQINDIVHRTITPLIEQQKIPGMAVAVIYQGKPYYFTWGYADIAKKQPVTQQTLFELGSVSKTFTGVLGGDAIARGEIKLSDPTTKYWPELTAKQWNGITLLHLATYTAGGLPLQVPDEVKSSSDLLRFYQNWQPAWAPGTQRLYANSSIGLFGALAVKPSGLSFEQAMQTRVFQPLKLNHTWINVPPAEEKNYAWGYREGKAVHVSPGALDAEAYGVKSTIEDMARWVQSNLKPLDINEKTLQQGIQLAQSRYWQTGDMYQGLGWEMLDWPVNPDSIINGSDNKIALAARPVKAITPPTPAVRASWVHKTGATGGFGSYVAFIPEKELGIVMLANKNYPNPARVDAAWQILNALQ

Row | Compound | Potency
1 | O=C(c1cccc(S(=O)(=O)N2CCOCC2)c1)N1CCCCCC1 | inconclusive [inhibitor, partial curve]
2 | Cc1c(NC(=O)C(C)Oc2ncnc3ccccc23)c(=O)n(-c2ccccc2)n1C (stereo not drawn) | inconclusive [inhibitor, partial curve, poor fit]
3 | CSc1cc(N2CCOCC2)nc(-c2ccccc2Cl)n1 | inconclusive [inhibitor, full curve, poor fit]
4 | CCOC(=O)C1CCN(Cc2c(O)ccc3ccccc23)CC1 | inconclusive [inhibitor, full curve, poor fit]
5 | c1ccc(-n2cnnc2SCc2nc3ccccc3s2)cc1 | inactive
6 | C/C(CCN1CCc2nc(-c3ccccc3)c(-c3ccccc3)cc2C1)=N\O[C@@H](C)c1cn([C@H](CO)Cc2ccccc2)nn1 | inconclusive [inhibitor, partial curve, poor fit]
7 | N#Cc1ccc(CSc2nnc(-c3cnccn3)o2)cc1 | inconclusive [inhibitor, full curve, poor fit]
8 | Cc1ccc(C)c(-c2nnc(NC(=O)C3=COCCO3)o2)c1 | inconclusive [inhibitor, partial curve, poor fit]
9 | Cc1ncsc1CCC(=O)N1CCCC(C(=O)c2cccc(Cl)c2)C1 (stereo not drawn) | inactive
10 | O=C(CCc1nc2ccccc2[nH]1)N1CCc2ccccc2C1 | inconclusive [inhibitor, full curve, poor fit]
11 | COCCCNC(=O)CSc1nc2ccccc2c(=O)n1CCCC(=O)NCC1CCCO1 (stereo not drawn) | inconclusive [inhibitor, single point]
12 | Cc1ccc(-n2c3c(cc(C(=O)NC4CCSC4=O)c2=O)C(=O)CC(C)(C)C3)cc1 (stereo not drawn) | inconclusive [inhibitor, full curve, poor fit]
13 | Cc1ccc(C2c3c(oc4cc(C)c(C)cc4c3=O)C(=O)N2CCCN2CCOCC2)cc1 (stereo not drawn) | inconclusive [inhibitor, full curve, poor fit]
14 | O=C(NNc1ccc([N+](=O)[O-])cc1)C1C2CCCCC21 (stereo not drawn) | inconclusive [inhibitor, partial curve, poor fit]
15 | COc1ccc2oc(=O)c(-c3csc(Nc4cccc(O)c4)n3)cc2c1 | inactive
16 | CCCCCn1c(CN2CCN(Cc3ccccc3)CC2)nc2c1c(=O)n(C)c(=O)n2C | inactive
17 | CC(C)c1nc(C#N)c(NCCCn2ccnc2)o1 | inconclusive [inhibitor, full curve]
18 | CC(=O)OCc1c(-c2ccccc2)c2cc([N+](=O)[O-])ccc2n1C | inactive
19 | COc1ccc(C(=O)Nc2cccc3ccccc23)cc1 | inconclusive [inhibitor, full curve, poor fit]
20 | COc1ccc(NC(=O)Nc2nnc(N3CCCCC3C)s2)cc1OC (stereo not drawn) | inconclusive [inhibitor, full curve, poor fit]
21 | COc1cc(Nc2cc(C)nc3nc(C)nn23)cc(OC)c1OC | inconclusive [inhibitor, full curve]
22 | O=C(OCc1nc2ccccc2[n+]([O-])c1C(=O)c1ccccc1)c1cccnc1 | inconclusive [inhibitor, single point]

Row | Compound | Potency
23 | O=C(NC(=O)c1ccccc1)NC(=O)c1ccccc1 | inconclusive [inhibitor, single point]
24 | CCC(=O)c1ccc(OCC(=O)OCC(=O)N2CCN(c3ccc(OC)cc3)CC2)cc1 | inconclusive [inhibitor, full curve]
25 | Cc1c(Cl)cccc1NC(=O)c1ccc(NC(=O)N2CCSc3ncccc32)cc1 | inactive
26 | O=C(c1cc([N+](=O)[O-])ccc1N1CCOCC1)N1CCOCC1 | inconclusive [inhibitor, full curve]
27 | O=C(c1ccc2c(c1)OCCO2)N1CCN(Cc2ccccc2)CC1 | inactive
28 | CCOCCCNC(=S)Nc1cc(OCC)c(NC(=O)c2ccco2)cc1OCC | inactive
29 | O=[N+]([O-])c1ccc(NCc2ccccc2)nc1 | inconclusive [inhibitor, full curve, poor fit]
30 | Cc1cccc(C)c1OCc1cc(C(=O)N2CCC(c3ccccc3)CC2)no1 | inactive
31 | CCOc1ccc(S(=O)(=O)N2Cc3ccccc3CC2C(=O)NCCCn2ccnc2)cc1 (stereo not drawn) | inconclusive [inhibitor, full curve, poor fit]
32 | COc1cc(OC)cc(C(=O)NCCCNC(=O)c2cccnc2)c1 | inconclusive [inhibitor, full curve, poor fit]
33 | CCCCN1CNC(=S)N(c2cc(C)ccc2C)C1 | inconclusive [inhibitor, single point]
34 | O=c1c2ccccc2nc(/C=C/c2ccc(O)cc2)n1-c1ccc(O)cc1 | inactive
35 | CCCCCCNC(=O)C(C#N)c1nc2ccccc2nc1N1CCCC1 (stereo not drawn) | inconclusive [inhibitor, full curve, poor fit]
36 | O=C(CN1C(=O)S/C(=C\c2ccccn2)C1=O)Nc1ccc(F)cc1 | inconclusive [inhibitor, full curve, poor fit]
37 | O=C(CSc1nc2ccc(NC(=O)c3ccccc3C(=O)O)cc2s1)Nc1ccc(F)c([N+](=O)[O-])c1 | inactive
38 | COC(=O)c1cc(OC)c(OC)cc1NC(=O)c1cccc(OC)c1OC | inconclusive [inhibitor, full curve, poor fit]
39 | Cc1ccc(OCC(=O)Nc2ccccc2C(=O)NC2CC2)cc1 | inconclusive [inhibitor, full curve]
40 | CC(C)C(=O)O/N=C(\N)c1ccccn1 | inconclusive [inhibitor, single point]
41 | COc1ccc(C(=O)Nc2nnc(SCC(=O)NC3CCCC3)s2)c(OC)c1 | inactive
42 | CNC(=O)c1sc2nc(-c3ccc(OC)cc3)cn2c1C | inactive
43 | CC(NC(=O)c1ccc(=O)oc1)c1ccccc1 (stereo not drawn) | inconclusive [inhibitor, full curve, poor fit]
